In all, about 310,000 compounds went through this assay and about 2,200 (0.71%) showed an effect of 50% or more. The effect is printed as a negative number. This is one part of the list.
These compounds were tested against human ether-à-go-go-related gene (hERG) potassium channel (human, UniProt Q12809) (assay: primary screen, population patch clamp on CHO cells stably expressing hERG).
Sequence of human ether-à-go-go-related gene (hERG) potassium channel (Q12809 whole entry, looked up): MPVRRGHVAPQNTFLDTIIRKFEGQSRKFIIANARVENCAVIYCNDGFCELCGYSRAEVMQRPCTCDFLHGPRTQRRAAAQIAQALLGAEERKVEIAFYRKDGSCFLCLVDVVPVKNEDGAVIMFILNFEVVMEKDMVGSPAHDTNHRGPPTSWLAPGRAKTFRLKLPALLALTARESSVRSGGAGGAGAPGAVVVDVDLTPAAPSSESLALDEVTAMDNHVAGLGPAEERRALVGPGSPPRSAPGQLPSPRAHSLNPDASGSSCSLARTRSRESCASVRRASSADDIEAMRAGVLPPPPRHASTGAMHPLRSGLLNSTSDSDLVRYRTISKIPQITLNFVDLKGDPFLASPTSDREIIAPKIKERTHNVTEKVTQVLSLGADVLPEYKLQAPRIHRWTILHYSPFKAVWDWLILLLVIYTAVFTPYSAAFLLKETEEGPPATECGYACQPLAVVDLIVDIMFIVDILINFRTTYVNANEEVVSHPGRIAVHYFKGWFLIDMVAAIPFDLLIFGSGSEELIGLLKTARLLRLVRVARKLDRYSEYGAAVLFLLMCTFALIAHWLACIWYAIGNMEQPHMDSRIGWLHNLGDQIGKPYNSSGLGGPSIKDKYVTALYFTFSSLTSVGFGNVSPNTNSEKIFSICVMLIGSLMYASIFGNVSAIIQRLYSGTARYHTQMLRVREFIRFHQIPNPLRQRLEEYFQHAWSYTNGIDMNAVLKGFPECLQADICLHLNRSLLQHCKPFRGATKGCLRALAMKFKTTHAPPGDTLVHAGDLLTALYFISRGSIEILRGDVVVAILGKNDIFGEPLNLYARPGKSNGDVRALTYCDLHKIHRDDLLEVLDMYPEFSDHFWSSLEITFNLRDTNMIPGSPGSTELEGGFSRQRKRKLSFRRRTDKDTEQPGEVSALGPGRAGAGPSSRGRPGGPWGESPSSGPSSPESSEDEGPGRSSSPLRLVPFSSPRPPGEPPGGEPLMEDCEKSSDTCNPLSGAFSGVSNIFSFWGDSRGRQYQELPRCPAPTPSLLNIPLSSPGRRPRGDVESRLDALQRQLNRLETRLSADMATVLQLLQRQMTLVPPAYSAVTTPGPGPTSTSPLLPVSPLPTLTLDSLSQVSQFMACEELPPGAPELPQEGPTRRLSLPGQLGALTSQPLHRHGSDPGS

First: CCOC(=O)Cc1nnc(NC(=O)Nc2ccccc2)s1
Second: CCOC(=O)Cn1ncc2c3ccccc3n(CC(=O)OCC)c2c1=O
The “hERG current change (%, negative = inhibition) at 1uM” value of the first is lower: 5.39% for the first, 13.4% for the second.

Going from `C=CCN1CC(O)=C(c2ccccc2)C1=N` to `O=C(/C=C\c1ccc(-c2ccccc2)o1)c1ccccc1`, the “hERG current change (%, negative = inhibition) at 1uM” value falls from 10.8% to -0.689%.

Going from `C(=N\N1CCN(Cc2ccccc2)CC1)/c1ccccc1` to `O=C(CCc1ccccc1)N1CCCN(C(=O)CCc2ccccc2)CC1`, the “hERG current change (%, negative = inhibition) at 1uM” value falls from 15.2% to -12.9%.

Compared with `CN1C(=O)NC2(O)C(=O)c3ccccc3C12O` (stereo not drawn), `Cc1ccccc1NC1=CC(=O)CC(C)(C)C1` is lower in “hERG current change (%, negative = inhibition) at 1uM” value: 5.85% for the first, -0.656% for the second.

Going from `COc1ccc(Cl)cc1NC(=O)CSc1nc2sccc2c(=O)[nH]1` to `COc1cccc(CNC(=O)c2c[nH]n3c(=O)c(Cl)c(C)nc23)c1`, the “hERG current change (%, negative = inhibition) at 1uM” value falls from 3.43% to 2.03%.

First: CCCCSc1nnc(-c2cc(Br)ccc2N)c(=O)[nH]1
Second: CCCCn1ccc(O)c(Cc2ccc(F)cc2)c1=O
The “hERG current change (%, negative = inhibition) at 1uM” value of the first is lower: 0.939% for the first, 6.54% for the second.

First: O/N=C(\c1ccc(Cl)cc1)c1cc2ccccc2o1
Second: Cc1cc(NC(=O)Cc2ccccc2)c2ccccc2n1
The “hERG current change (%, negative = inhibition) at 1uM” value of the first is higher: 15.4% for the first, 14% for the second.

Going from `CCN(CC)CCNC(C(=O)Nc1cc(C(F)(F)F)ccc1Cl)c1ccccc1` (stereo not drawn) to `O=C(COc1ccc([N+](=O)[O-])cc1Cl)NCCc1ccccc1`, the “hERG current change (%, negative = inhibition) at 1uM” value rises from -85.3% to -9.59%.

Going from `COc1cc(C2Nc3ccc4ncccc4c3C3=C2C(=O)CCC3)cc(OC)c1O` (stereo not drawn) to `COc1ccc(-c2c(C#N)c(N)nc3c2CCCC3)cc1OC`, the “hERG current change (%, negative = inhibition) at 1uM” value rises from 11.5% to 13.6%.

First: O=C(NC(NC(=O)c1ccccc1)C(=O)c1ccccc1)c1ccccc1
Second: CCN(c1ccccc1)S(=O)(=O)c1ccc(C(=O)NNC(=O)c2ccccc2F)cc1
The “hERG current change (%, negative = inhibition) at 1uM” value of the first is lower: 6.23% for the first, 9.49% for the second.

First: COc1cc2nc(CN(C)Cc3ccc(F)cc3)[nH]c(=O)c2cc1OC
Second: COc1cc(OC)c(N(C)C(=O)c2cn(C)c(=O)c3cc(OC)c(OC)cc23)cc1Cl
The “hERG current change (%, negative = inhibition) at 1uM” value of the first is higher: 12.5% for the first, 1.96% for the second.

First: CCOC(=O)C1(Cc2cccc(F)c2)CCN(Cc2cnn(CC)c2)CC1
Second: COCc1c(C(=O)N2CCN(Cc3nc4ccccc4s3)CC2)oc2ccccc12
The “hERG current change (%, negative = inhibition) at 1uM” value of the first is higher: -4.74% for the first, -19.6% for the second.

First: COc1ccc(/C=N/NC(=O)Cc2n[nH]c(=O)[nH]c2=O)cc1
Second: COc1ccc(/C=C/C(=O)c2c(C)nc3ccccn23)cc1
The “hERG current change (%, negative = inhibition) at 1uM” value of the first is higher: 12.6% for the first, -0.193% for the second.

First: C=CCNc1nnc(SCC(=O)N2CCCCC2)c2ccccc12
Second: Cc1ccsc1C(=O)Nc1ccccc1N1CCCC1
The “hERG current change (%, negative = inhibition) at 1uM” value of the first is higher: 10.3% for the first, 4.57% for the second.

Compared with `Cc1ccccc1-c1nnc(CS(=O)(=O)c2ccccc2)o1`, `O=S(=O)(NCC1OCCc2ccccc21)c1ccccc1` (stereo not drawn) is higher in “hERG current change (%, negative = inhibition) at 1uM” value: -1.93% for the first, 6.18% for the second.

Going from `CC(C)c1ccc(NC(=O)c2ccc3c(c2)C(=O)N(Cc2cccnc2)C3=O)cc1` to `CCOC(=O)c1ccc(NC(=O)CS(=O)(=O)c2cn(CC)c3ccccc23)cc1`, the “hERG current change (%, negative = inhibition) at 1uM” value falls from 8.25% to 4.04%.

First: Cn1c2ccccc2n2c(=O)cc(-c3ccccc3)c(C#N)c12
Second: Cc1cc(=O)n2c(sc3ccccc32)c1C#N
The “hERG current change (%, negative = inhibition) at 1uM” value of the first is lower: 1.18% for the first, 9.96% for the second.

Going from `CCn1ccnc1[C@@H]1C[C@H]2CN(c3ccccc3OC)C(=O)[C@]23CCCN13` to `COc1ccc([N+](=O)[O-])cc1N(CC(=O)N1CCCCC1)S(C)(=O)=O`, the “hERG current change (%, negative = inhibition) at 1uM” value rises from 11.8% to 14.3%.

Going from `O=C(Nc1ccc2c(c1)OCCO2)C1CCN(C(=O)c2ccc(F)cc2)CC1` to `CC(NC(=O)c1ccc(Cl)cc1)C(=O)N1CCCCC1` (stereo not drawn), the “hERG current change (%, negative = inhibition) at 1uM” value rises from 5.7% to 17.6%.

Going from `Cc1cc(C)c2[nH]c(O)c(N=Nc3ccc(C(=O)O)cc3)c2c1` to `Cc1c(NC(=O)CSc2nnnn2-c2ccc(C(=O)O)cc2)c(=O)n(-c2ccccc2)n1C`, the “hERG current change (%, negative = inhibition) at 1uM” value falls from 18.2% to 16.2%.

Going from `COC(=O)C(C)Oc1cc(OC(C)C(=O)OC)c2c(-c3ccccc3)cc(=O)oc2c1` (stereo not drawn) to `COC(=O)[C@H](CCSC)NC(=O)Nc1cc(OC)cc(OC)c1`, the “hERG current change (%, negative = inhibition) at 1uM” value rises from 7.88% to 8.39%.

First: C/C(=N\NC(=O)c1nnn(-c2nonc2N)c1C(C)C)c1ccc2ccccc2c1
Second: COc1ccc(CCn2c(C(C)C)nc3c(c(=O)c4ccccc4n3C)c2=O)cc1
The “hERG current change (%, negative = inhibition) at 1uM” value of the first is higher: 10% for the first, -14.3% for the second.

Compared with `CCCCCCCC(=O)NNC(=O)Cc1ccccc1`, `O=C(COC(=O)c1ccccn1)Nc1ccccc1Cl` is higher in “hERG current change (%, negative = inhibition) at 1uM” value: 0.0529% for the first, 4.54% for the second.

Going from `O=C(NCC1CCCO1)C(c1ccccn1)N(Cc1ccccc1Cl)C(=O)CN1C(=O)c2ccccc2S1(=O)=O` (stereo not drawn) to `O=C(CSc1nnc(-c2ccccc2)c(-c2ccccc2)n1)NC1CCS(=O)(=O)C1` (stereo not drawn), the “hERG current change (%, negative = inhibition) at 1uM” value rises from 8.75% to 11.8%.

First: CCOC(=O)c1c(C)[nH]c(C(=O)COC(=O)c2ccccn2)c1C
Second: CCN(CC(=O)Nc1ccc(OC)cc1)C(=O)CSCC(=O)Nc1ccc(C)cc1
The “hERG current change (%, negative = inhibition) at 1uM” value of the first is lower: -5.28% for the first, 3.04% for the second.

First: O=S(=O)(c1ccc(F)cc1)c1snnc1-c1ccccc1
Second: O=C1NN(c2ccccc2)C(=O)/C1=C\c1coc2ccc(O)cc2c1=O
The “hERG current change (%, negative = inhibition) at 1uM” value of the first is higher: 13.1% for the first, -2.2% for the second.

Compared with `Cc1cc2c(cc3c(=O)n(CC(=O)NCCCN4CC(C)CC(C)C4)ncn32)s1` (stereo not drawn), `Cc1ccc(S(=O)(=O)NNC(=O)c2sc(=S)n(C)c2C)cc1` is higher in “hERG current change (%, negative = inhibition) at 1uM” value: -13.2% for the first, 16.2% for the second.

Going from `CC(C)CC(=O)Nc1ccc(S(=O)(=O)Nc2nccs2)cc1` to `N#Cc1ccc(NC(=O)c2cccs2)nc1`, the “hERG current change (%, negative = inhibition) at 1uM” value rises from 2.14% to 13%.

For `CC1(C)OCC(C2CC(c3ccccc3)NS(=O)(=O)O2)O1` (stereo not drawn), the “hERG current change (%, negative = inhibition) at 1uM” value was 21.3%.
